Experimental data as given in PubChem BioAssay AID1030 (National Center for Advancing Translational Sciences (NCATS), 2008).
Out of some 220,000 compounds screened, about 16,000 (7.3%) were called active. Inconclusive results, whose numbers are uncertain, are shown with a selection of clear calls. The call rests on the fitted dose curve; in most records, active means well fitted inhibition curve with a large enough effect (not every such curve was filed as active); inconclusive means small, poorly fitted or top-dose-only effect, or another doubt; inactive means no such curve, though single readings can be large or run the other way. Potencies of inconclusive entries are left out as doubtful fits.

molecular target: Aldehyde dehydrogenase 1A1 (Homo sapiens) (UniProt P00352); experiment: qHTS Assay for Inhibitors of Aldehyde Dehydrogenase 1 (ALDH1A1); conditions: Purified ALDH1A1, NADH fluorescence, propionaldehyde substrate; series mostly up to 75.3 µM; activity, negative = inhibition: at the top concentration;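 on activity, negative = inhibition: plate controls were no enzyme wells and a reference inhibitor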
Sequence of UniProt P00352 (P00352 whole entry, looked up): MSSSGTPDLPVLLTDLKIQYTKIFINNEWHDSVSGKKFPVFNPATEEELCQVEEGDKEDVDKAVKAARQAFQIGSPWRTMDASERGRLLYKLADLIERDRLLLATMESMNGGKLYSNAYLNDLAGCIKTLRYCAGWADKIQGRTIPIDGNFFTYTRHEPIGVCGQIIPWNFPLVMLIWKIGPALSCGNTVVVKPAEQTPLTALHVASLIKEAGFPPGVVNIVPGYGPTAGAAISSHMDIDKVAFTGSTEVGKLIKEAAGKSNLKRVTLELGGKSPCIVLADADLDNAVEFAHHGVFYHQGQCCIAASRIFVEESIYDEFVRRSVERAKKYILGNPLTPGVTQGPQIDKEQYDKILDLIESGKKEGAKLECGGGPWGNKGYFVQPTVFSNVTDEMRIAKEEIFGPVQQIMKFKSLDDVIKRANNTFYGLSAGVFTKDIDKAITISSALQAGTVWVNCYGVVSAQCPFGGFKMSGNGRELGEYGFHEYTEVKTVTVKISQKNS
Potency means the concentration at half of the fitted maximal effect; tags describe the fitted curve by direction and shape.

Q: With `COC(=O)c1ccccc1NC(=O)Oc1ccc(C(C)C)cc1` as the compound, how does the Potency read?
A: The Potency was inconclusive [inhibitor, single point].

Q: With `COc1cc(/C=C2/SC(=S)N(CC3CCCO3)C2=O)ccc1O` (stereo unspecified) as the compound, how does the Potency read?
A: Its Potency is active: 0.141 µM.

Q: How did the Potency turn out when `CCOC(=O)C1CCCN(CCC(C)c2ccccc2)C1` (stereo unspecified) was run?
A: Its Potency is inconclusive [inhibitor, partial curve].

Q: `NCCC[C@@H](CC(=O)N[C@@H]1CCNC[C@H]1C(=O)N[C@H](CC(=O)N[C@@H](CCC(=O)O)CC(=O)O)Cc1ccccc1)NC(=O)C[C@H](Cc1ccccc1)NC(=O)[C@@H]1CNCC[C@H]1N` was tested. Which “activity, negative = inhibition” value did it give?
A: The value was inactive: 5.29%.

Q: For `O=C(CCCN1C(=O)c2cccc3cccc(c23)C1=O)NCc1cccs1`, which Potency is on record?
A: The Potency was inconclusive [inhibitor, single point].

Q: Which Potency does the source give for `O=c1c2sccc2[nH]c(=S)n1Cc1ccccc1` here?
A: Its Potency is inconclusive [inhibitor, single point].

Q: Which Potency does the source give for `Clc1ccc(/C=C/c2nc3ccccc3[nH]2)c(Cl)c1` here?
A: The Potency was inconclusive [inhibitor, partial curve].

Q: For `COC(=O)c1cc(NC(=O)CC2NC3CCCCC3NC2=O)cc(C(=O)OC)c1` (stereo unspecified), which Potency is on record?
A: The Potency was inconclusive [inhibitor, single point].

Q: For `CC(=O)Nc1nc(-c2ccc3c(c2)CCN3S(C)(=O)=O)cs1`, which Potency is on record?
A: The Potency was inconclusive [inhibitor, single point].

Q: For `O=C(O)c1ccc(CSc2nc(-c3ccc(Cl)cc3)cc(C(F)(F)F)n2)cc1`, which “activity, negative = inhibition” value is on record?
A: The value was inactive: 1.95%.

Q: For `CCc1ccc(C2C(C#N)=C(N)SC(N)=C2C#N)s1`, which Potency is on record?
A: Its Potency is inconclusive [inhibitor, partial curve, poor fit].

Q: With `CCOC(=O)N1CCC(NC(=O)c2cnn3ccccc23)CC1` as the compound, how does the Potency read?
A: The Potency was inconclusive [inhibitor, single point].

Q: Which Potency does the source give for `O=[N+]([O-])c1ccccc1/C=C/C=N/n1c(-c2ccccc2)n[nH]c1=S` here?
A: Its Potency is inconclusive [inhibitor, single point].

Q: How did the Potency turn out when `CCCOc1ccc(C(=O)NC(=S)NCc2cccnc2)cc1` was run?
A: The Potency was inconclusive [inhibitor, single point].

Q: With `COc1ccc(/C=C2\SC(=S)N(CC(=O)Nc3nnc(C)s3)C2=O)cc1` as the compound, how does the Potency read?
A: Its Potency is inconclusive [inhibitor, single point].

Q: `O=C(Cc1ccccc1)NNS(=O)(=O)c1ccc(F)cc1` was tested. Which Potency did it give?
A: The Potency was inconclusive [inhibitor, single point].

Q: How did the Potency turn out when `CCCOC(=O)c1ccc(NC(=O)c2ccccc2[N+](=O)[O-])cc1` was run?
A: Its Potency is inconclusive [inhibitor, single point].

Q: For `COCCNC(=O)/C(C#N)=C/c1ccc(-c2ccc(S(=O)(=O)N3CCOCC3)cc2)o1`, which Potency is on record?
A: The Potency was inconclusive [inhibitor, single point].

Q: With `c1ccc(-c2cnc(-c3cccnc3)o2)cc1` as the compound, how does the Potency read?
A: Its Potency is inconclusive [inhibitor, partial curve].

Q: How did the Potency turn out when `CCCCOC(=O)C1=C(C)Nc2ncnn2C1c1cc(OC)c(OC)cc1OC` (stereo unspecified) was run?
A: The Potency was inconclusive [inhibitor, partial curve].

Q: How did the Potency turn out when `O=C(CCN1C(=O)/C(=C/c2cccs2)SC1=S)NC1=NCCS1` was run?
A: Its Potency is inconclusive [inhibitor, partial curve].

Q: `CS(=O)(=O)Nc1cccc(C2=NN(S(C)(=O)=O)C(c3ccccc3)C2)c1` (stereo unspecified) was tested. Which Potency did it give?
A: Its Potency is inconclusive [inhibitor, single point].

Q: `COc1ccccc1OCC#CCn1ccnc1` was tested. Which Potency did it give?
A: The Potency was inconclusive [inhibitor, single point].

Q: How did the “activity, negative = inhibition” value turn out when `CCCCNS(=O)(=O)c1ccc(S(=O)(=O)NCc2ccncc2)cc1` was run?
A: The value was inactive: 8.81%.

Q: `Cc1ccccc1C(=O)Nc1nnc(SC(C)C)s1` was tested. Which Potency did it give?
A: The Potency was active: 15.8 µM.

Q: `CCN1CCN(C(=O)C(N)Cc2ccccc2)CC1` (stereo unspecified) was tested. Which “activity, negative = inhibition” value did it give?
A: The value was inactive: 3.78%.

Q: `COc1ccc(Nc2nc(-c3cccs3)nc3ccccc23)cc1` was tested. Which Potency did it give?
A: Its Potency is inconclusive [inhibitor, single point].

Q: For `CC(C)C1=CC2=CCC3[C@@](C)(CCC[C@@]3(C)C(=O)O)C2CC1` (stereo partly specified), which “activity, negative = inhibition” value is on record?
A: Its value is inactive: -11.7%.

Q: With `Cc1nn(C)c(Oc2ccccc2)c1CCNC(=O)C(C)(C)C` as the compound, how does the “activity, negative = inhibition” value read?
A: The value was inactive: 5.06%.

Q: How did the Potency turn out when `CCOC(=O)NC1(NCC(C)C)Oc2ccccc2O1` was run?
A: Its Potency is inconclusive [inhibitor, single point].

Q: With `Cc1ccccc1CC1(CO)CCCN(Cc2nc(-c3cccs3)oc2C)C1` (stereo unspecified) as the compound, how does the “activity, negative = inhibition” value read?
A: Its value is inactive: -5.42%.

Q: How did the “activity, negative = inhibition” value turn out when `O=C(c1cccnc1)N1CCN(C(=O)c2ccco2)CC1` was run?
A: Its value is inactive: 1.24%.

Q: For `O=C(CSc1nnc(CNc2ccc(F)cc2)o1)N1CCCc2ccccc21`, which Potency is on record?
A: The Potency was inconclusive [inhibitor, single point].

Q: How did the Potency turn out when `O=[N+]([O-])c1ccccc1/C=C/C=N/Nc1nc(N2CCCCC2)nc(N2CCCCC2)n1` was run?
A: Its Potency is inconclusive [inhibitor, single point].

Q: Which Potency does the source give for `Cc1cc(C)nc(SCCS(=O)(=O)Cc2ccc(Cl)cc2)n1` here?
A: The Potency was inconclusive [inhibitor, single point].

Q: Which “activity, negative = inhibition” value does the source give for `O=C(CSc1nc2ccccc2c(=O)n1CCCN1CCOCC1)Nc1cccc(S(=O)(=O)N2CCCCCC2)c1` here?
A: Its value is inactive: -6%.

Q: Which Potency does the source give for `O=c1c2cc(NC(=S)NCc3ccccn3)ccc2nc2n1CCCCC2` here?
A: Its Potency is inconclusive [inhibitor, single point].

Q: Which Potency does the source give for `C=CCNc1nc(-c2sc(NC(=O)CC)nc2C)cs1` here?
A: The Potency was inconclusive [inhibitor, single point].

Q: How did the Potency turn out when `COc1ccc(C2CC(=O)N3CN(Cc4ccco4)CSC3=C2C#N)cc1` (stereo unspecified) was run?
A: Its Potency is active: 10 µM.

Q: Which Potency does the source give for `Cc1nc(Nc2ccccc2)sc1-c1ccccc1` here?
A: The Potency was active: 22.4 µM.

Q: Which Potency does the source give for `C=CCN1C(=O)C(Cc2cccc(Cl)c2)SC1=Nc1ccc(C(=O)O)cc1` (stereo unspecified) here?
A: The Potency was inconclusive [inhibitor, single point].

Q: Which Potency does the source give for `COc1cc(/C=C2\SC(=O)N(c3cccc(Cl)c3)C2=O)cc([N+](=O)[O-])c1O` here?
A: Its Potency is active: 0.891 µM.

Q: How did the Potency turn out when `N#Cc1ccccc1OCC(=O)OCC(=O)N1CCN(C(=O)c2ccco2)CC1` was run?
A: The Potency was inconclusive [inhibitor, single point].

Q: How did the “activity, negative = inhibition” value turn out when `Cc1cc([N+](=O)[O-])nn1CCC(=O)NC1CCCCCC1` was run?
A: Its value is inactive: -6.96%.

Q: Which activity, negative = inhibition does the source give for `NC(=O)N/N=C1\CC[C@H](O)C[C@@H]1CC(=O)O` here?
A: Its activity, negative = inhibition is inactive: 16.7% [at 13.5 µM].

Q: Which “activity, negative = inhibition” value does the source give for `O=C1c2ccccc2CCCC12N=NCC2c1cccc2ccccc12` (stereo unspecified) here?
A: Its value is inactive: -6.61%.

Q: For `COC(=O)N/N=C/c1cn(Cc2ccccc2Cl)c2ccccc12`, which “activity, negative = inhibition” value is on record?
A: The value was inactive: -4.28%.

Q: With `CC/C(=N/Nc1ccc(Cl)cc1)c1cnnc(SC)n1` as the compound, how does the Potency read?
A: The Potency was active: 10 µM.

Q: Which “activity, negative = inhibition” value does the source give for `Cc1ccc(S(=O)(=O)N(C)CC(=O)N2CCN(c3ccccn3)CC2)cc1` here?
A: The value was inactive: -15%.

Q: For `CCOC(=O)C1=C(C)OC(N)=C(C#N)C1c1cc(C)sc1C` (stereo unspecified), which Potency is on record?
A: Its Potency is inconclusive [inhibitor, single point].

Q: With `O=C(Nc1nnc(-c2ccc(Cl)s2)o1)C1CC1` as the compound, how does the Potency read?
A: Its Potency is inconclusive [inhibitor, partial curve].

Q: How did the Potency turn out when `O=C(CSc1ccc(-c2nc3ccccc3[nH]2)cn1)N1CCN(C(=O)c2ccco2)CC1` was run?
A: The Potency was inconclusive [inhibitor, partial curve].

Q: For `CCOC(=O)CSC1=C(C#N)C(c2ccccc2C)C2=C(CCCC2=O)N1` (stereo unspecified), which Potency is on record?
A: Its Potency is inconclusive [inhibitor, partial curve].

Q: Which Potency does the source give for `Cc1cc(OCCN2CCOCC2)ccc1[N+](=O)[O-]` here?
A: Its Potency is inconclusive [inhibitor, single point].

Q: For `CCOC(=O)CCCCC(=O)c1[nH]c(=O)[nH]c1CSc1nnc2c3cc(Br)ccc3n(C)c2n1`, which Potency is on record?
A: Its Potency is active: 0.631 µM.

Q: Which Potency does the source give for `Cn1c(=O)c2c(nc(CN3CCN(c4ccccc4)CC3)n2Cc2ccccc2Cl)n(C)c1=O` here?
A: The Potency was inconclusive [inhibitor, partial curve].

Q: Which “activity, negative = inhibition” value does the source give for `Cc1cccc(OCc2nc(C#N)c(N3CCCC3)o2)c1` here?
A: Its value is inactive: 0.403%.

Q: For `COc1cc2c(C(=O)NCCCN3CCN(c4cccc(Cl)c4)CC3)cn(C)c(=O)c2cc1OC`, which Potency is on record?
A: Its Potency is inconclusive [inhibitor, single point].

Q: How did the Potency turn out when `O=C(/C=C/c1ccc([N+](=O)[O-])cc1)NCCSc1ccccc1` was run?
A: The Potency was inconclusive [inhibitor, single point].

Q: With `O=c1c2cc(N3CCOCC3)ccc2[nH]c(=S)n1CC1CCCO1` (stereo unspecified) as the compound, how does the Potency read?
A: Its Potency is inconclusive [inhibitor, partial curve].

Q: For `O=C(NCc1ccccc1)C1=C[C@H](c2csc3ccccc23)C[C@H](OCCCCO)O1`, which Potency is on record?
A: Its Potency is inconclusive [inhibitor, single point].

Q: How did the Potency turn out when `COC(=O)C1NN=C(C(=O)c2ccc(Br)cc2)C1c1cccc(Br)c1` (stereo unspecified) was run?
A: Its Potency is inconclusive [inhibitor, single point].

Q: With `O=C1c2ccccc2C(=O)N1CCCc1nc(-c2ccccn2)no1` as the compound, how does the “activity, negative = inhibition” value read?
A: The value was inactive: -1.55%.

Q: With `c1sc2[n+](c1C13CC4CC(CC(C4)C1)C3)CCS2` as the compound, how does the Potency read?
A: Its Potency is inconclusive [inhibitor, single point].

Q: `O=c1c(-c2cc(F)cc(F)c2)nc2cncnc2n1Cc1ccccc1` was tested. Which Potency did it give?
A: Its Potency is inconclusive [inhibitor, partial curve].

Q: With `CC[n+]1ccccc1/C=C/Nc1ccccc1` as the compound, how does the “activity, negative = inhibition” value read?
A: The value was inactive: 6.55%.

Q: `O=c1sc2ccccc2n1CCOc1ccccc1` was tested. Which Potency did it give?
A: The Potency was inconclusive [inhibitor, single point].

Q: For `CC(C)=CC1C=C(C)C(C)C2C(=O)NNC(=O)C12` (stereo unspecified), which Potency is on record?
A: The Potency was active: 3.55 µM.

Q: For `CN/N=C(\Cc1nc2ccccc2[nH]1)c1ccc([N+](=O)[O-])cc1`, which Potency is on record?
A: The Potency was active: 20 µM.

Q: Which Potency does the source give for `CC(=O)Nc1cccc(-c2nc3ccccc3[nH]2)c1` here?
A: The Potency was inconclusive [inhibitor, partial curve].

Q: Which Potency does the source give for `COc1ncnc2c1oc1nc(C(C)C)c3c(c12)CC(C)(C)OC3` here?
A: Its Potency is inconclusive [inhibitor, partial curve].
